Test results published in the supplement of paper PMC8728848.
Some of the results follow.

What was measured:
Experiment in all cases: glycan array binding signal (z-score within array); higher = stronger binding
Settings in all cases: glycan notation: IUPAC condensed, linker removed
Fuc(a1-2)Gal = target: Fuc(a1-2)Gal
How it was run: (§1)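 The binding signal is a Z-score computed within each array. Data were drawn from 3228 arrays in the Consortium for Functional Glycomics database, restricted to those with a known protein sequence. Scores were averaged over arrays of the same protein sequence at different concentrations or buffers, and over linkers, and negative values can be taken as non-binding.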

Fuc(a1-2)Gal(b1-3)GalNAc = target: Fuc(a1-2)Gal(b1-3)GalNAc
How it was run: as §1

[1] = target: Fuc(a1-2)Gal(b1-3)GalNAc(a1-3)[Fuc(a1-2)]Gal(b1-4)Glc
How it was run: as §1

[2] = target: Fuc(a1-2)Gal(b1-3)GalNAc(a1-3)[Fuc(a1-2)]Gal(b1-4)GlcNAc
How it was run: as §1

[3] = target: Fuc(a1-2)Gal(b1-3)GalNAc(b1-3)Gal
How it was run: as §1

[4] = target: Fuc(a1-2)Gal(b1-3)GalNAc(b1-3)Gal(a1-4)Gal(b1-4)Glc
How it was run: as §1

[5] = target: Fuc(a1-2)Gal(b1-3)GalNAc(b1-4)[Neu5Ac(a2-3)]Gal(b1-4)Glc
How it was run: as §1

Fuc(a1-2)Gal(b1-3)GlcNAc = target: Fuc(a1-2)Gal(b1-3)GlcNAc
How it was run: as §1

[6] = target: Fuc(a1-2)Gal(b1-3)GlcNAc(b1-2)Man(a1-3)[Fuc(a1-2)Gal(b1-3)GlcNAc(b1-2)Man(a1-6)]Man(b1-4)GlcNAc(b1-4)GlcNAc
How it was run: as §1

[7] = target: Fuc(a1-2)Gal(b1-3)GlcNAc(b1-2)Man(a1-3)[Fuc(a1-2)Gal(b1-3)GlcNAc(b1-2)Man(a1-6)]Man(b1-4)GlcNAc(b1-4)[Fuc(a1-6)]GlcNAc
How it was run: as §1

[8] = target: Fuc(a1-2)Gal(b1-3)GlcNAc(b1-3)Gal(b1-4)Glc
How it was run: as §1

[9] = target: Fuc(a1-2)Gal(b1-3)GlcNAc(b1-3)GalNAc
How it was run: as §1

[10] = target: Fuc(a1-2)Gal(b1-3)GlcNAc(b1-3)[Fuc(a1-2)Gal(b1-3)GlcNAc(b1-6)]GalNAc
How it was run: as §1

[11] = target: Fuc(a1-2)Gal(b1-3)GlcNAc(b1-3)[Gal(b1-4)GlcNAc(b1-6)]Gal(b1-4)Glc
How it was run: as §1

[12] = target: Fuc(a1-2)Gal(b1-3)GlcNAc(b1-3)[Neu5Ac(a2-6)Gal(b1-4)GlcNAc(b1-6)]Gal(b1-4)Glc
How it was run: as §1

[13] = target: Fuc(a1-2)Gal(b1-3)GlcNAc6S
How it was run: as §1

[14] = target: Fuc(a1-2)Gal(b1-3)[Fuc(a1-4)]GlcNAc
How it was run: as §1

[15] = target: Fuc(a1-2)Gal(b1-3)[Fuc(a1-4)]GlcNAc(b1-2)Man(a1-3)[Fuc(a1-2)Gal(b1-3)[Fuc(a1-4)]GlcNAc(b1-2)Man(a1-3)]Man(b1-4)GlcNAc(b1-4)GlcNAc
How it was run: as §1

[16] = target: Fuc(a1-2)Gal(b1-3)[Fuc(a1-4)]GlcNAc(b1-2)Man(a1-3)[Fuc(a1-2)Gal(b1-3)[Fuc(a1-4)]GlcNAc(b1-2)Man(a1-6)]Man(b1-4)GlcNAc(b1-4)[Fuc(a1-6)]GlcNAc(b1-4)[Fuc(a1-6)]GlcNAc
How it was run: as §1

[17] = target: Fuc(a1-2)Gal(b1-3)[Fuc(a1-4)]GlcNAc(b1-3)[Fuc(a1-3)[Gal(b1-4)]GlcNAc(b1-6)]Gal(b1-4)Glc
How it was run: as §1

[18] = target: Fuc(a1-2)Gal(b1-3)[Fuc(a1-4)]GlcNAc(b1-3)[Gal(b1-4)GlcNAc(b1-6)]Gal(b1-4)Glc
How it was run: as §1

Fuc(a1-2)Gal(b1-4)Glc = target: Fuc(a1-2)Gal(b1-4)Glc
How it was run: as §1

Fuc(a1-2)Gal(b1-4)Glc6S = target: Fuc(a1-2)Gal(b1-4)Glc6S
How it was run: as §1

Fuc(a1-2)Gal(b1-4)GlcNAc = target: Fuc(a1-2)Gal(b1-4)GlcNAc
How it was run: as §1

[19] = target: Fuc(a1-2)Gal(b1-4)GlcNAc(b1-2)Man
How it was run: as §1

[20] = target: Fuc(a1-2)Gal(b1-4)GlcNAc(b1-2)Man(a1-3)[Fuc(a1-2)Gal(b1-4)GlcNAc(b1-2)Man(a1-6)]Man(b1-4)GlcNAc(b1-4)GlcNAc
How it was run: as §1

[21] = target: Fuc(a1-2)Gal(b1-4)GlcNAc(b1-2)Man(a1-3)[Fuc(a1-2)Gal(b1-4)GlcNAc(b1-2)Man(a1-6)]Man(b1-4)GlcNAc(b1-4)[Fuc(a1-6)]GlcNAc
How it was run: as §1

[22] = target: Fuc(a1-2)Gal(b1-4)GlcNAc(b1-2)[Fuc(a1-2)Gal(b1-4)GlcNAc(b1-4)]Man(a1-3)[Fuc(a1-2)Gal(b1-4)GlcNAc(b1-2)Man(a1-6)]Man(b1-4)GlcNAc(b1-4)GlcNAc
How it was run: as §1

[23] = target: Fuc(a1-2)Gal(b1-4)GlcNAc(b1-3)Gal(b1-4)GlcNAc
How it was run: as §1

[24] = target: Fuc(a1-2)Gal(b1-4)GlcNAc(b1-3)Gal(b1-4)GlcNAc(b1-2)Man(a1-3)[Fuc(a1-2)Gal(b1-4)GlcNAc(b1-3)Gal(b1-4)GlcNAc(b1-2)Man(a1-6)]Man(b1-4)GlcNAc(b1-4)GlcNAc
How it was run: as §1

B1: GS13846A-bth-444-19-444 (Bacteroides thetaiotaomicron) (protein)
chain: SCENEFDVSDKADSLISVTVNTLNNQAAYNVGETAQAELWIQRGGLKDASGKVQFVVDPLLLDSLNQEDKTNYELLPENCYEMTNTEFTVDKNELCGYITYHPEKILALSAYNETKYVLPLRLISNDLAINPARNTSFLAFTILEPIVHISNAGVYNINPDLTSTMDIQIGVPFTNKWDILCNLTEDLSLIDEYNQINKVNFTLLPENAYTAPESVTLQEGVSQITASYQLKNNLVPGNYILPIKIGSITASQGGVPNNSLVIDEESNVLFCIVKEGNKINKSGWEVIECSSEHAGNEATYMIDDNESTYWHCKFKNEAGSSVPPFHFIIDMKKEITIAQIDLLNRGDGAANNIKWVEFYASNNNSEWDKIGAGDFNDEGTRATFRYYVKSTKARYLKLIIPEGYGNNCPPAAIRELTVYGLEGNN
glycan array binding signal (z-score) (Fuc(a1-2)Gal): -0.378
glycan array binding signal (z-score) (Fuc(a1-2)Gal(b1-3)GalNAc): -0.247
glycan array binding signal (z-score) [1]: -0.228
glycan array binding signal (z-score) [2]: -0.335
glycan array binding signal (z-score) [3]: 0.688
glycan array binding signal (z-score) [4]: -0.194
glycan array binding signal (z-score) [5]: -0.273
glycan array binding signal (z-score) (Fuc(a1-2)Gal(b1-3)GlcNAc): -0.287
glycan array binding signal (z-score) [6]: 0.682
glycan array binding signal (z-score) [7]: -0.352
glycan array binding signal (z-score) [8]: -0.215
glycan array binding signal (z-score) [9]: -0.177
glycan array binding signal (z-score) [10]: -0.101
glycan array binding signal (z-score) [11]: -0.129
glycan array binding signal (z-score) [12]: -0.312
glycan array binding signal (z-score) [13]: 0.028
glycan array binding signal (z-score) [14]: -0.171
glycan array binding signal (z-score) [15]: -0.423
glycan array binding signal (z-score) [16]: 0.113
glycan array binding signal (z-score) [17]: -0.365
glycan array binding signal (z-score) [18]: -0.035
glycan array binding signal (z-score) (Fuc(a1-2)Gal(b1-4)Glc): -0.176
glycan array binding signal (z-score) (Fuc(a1-2)Gal(b1-4)Glc6S): -0.399
glycan array binding signal (z-score) (Fuc(a1-2)Gal(b1-4)GlcNAc): -0.474
glycan array binding signal (z-score) [19]: -0.245
glycan array binding signal (z-score) [20]: 0.384
glycan array binding signal (z-score) [21]: 0.194
glycan array binding signal (z-score) [22]: -0.079
glycan array binding signal (z-score) [23]: -0.352
glycan array binding signal (z-score) [24]: -0.07
